Measurements from PubChem BioAssay AID1645887 (National Center for Advancing Translational Sciences (NCATS), 2021).
Several values for one entry are separate records, joined by “and”; a condition that tells them apart may be missing. Equal values may be shown once. Hit rate of the full screen: of about 16,000 compounds, about 40 (0.2%) were called active. Inconclusive results (about 1%) are left out. Calls come from the whole dose curve; as a rule, active = well fitted activation curve with a large enough effect; inconclusive = small, poorly fitted or top-dose-only effect, or another doubt; inactive = no such curve, though single readings can be large or run the other way. Some of the results follow.

Molecular target: Rap guanine nucleotide exchange factor 4 (Homo sapiens) (UniProt Q8WZA2)
Sequence of UniProt Q8WZA2 (Q8WZA2 whole entry, looked up): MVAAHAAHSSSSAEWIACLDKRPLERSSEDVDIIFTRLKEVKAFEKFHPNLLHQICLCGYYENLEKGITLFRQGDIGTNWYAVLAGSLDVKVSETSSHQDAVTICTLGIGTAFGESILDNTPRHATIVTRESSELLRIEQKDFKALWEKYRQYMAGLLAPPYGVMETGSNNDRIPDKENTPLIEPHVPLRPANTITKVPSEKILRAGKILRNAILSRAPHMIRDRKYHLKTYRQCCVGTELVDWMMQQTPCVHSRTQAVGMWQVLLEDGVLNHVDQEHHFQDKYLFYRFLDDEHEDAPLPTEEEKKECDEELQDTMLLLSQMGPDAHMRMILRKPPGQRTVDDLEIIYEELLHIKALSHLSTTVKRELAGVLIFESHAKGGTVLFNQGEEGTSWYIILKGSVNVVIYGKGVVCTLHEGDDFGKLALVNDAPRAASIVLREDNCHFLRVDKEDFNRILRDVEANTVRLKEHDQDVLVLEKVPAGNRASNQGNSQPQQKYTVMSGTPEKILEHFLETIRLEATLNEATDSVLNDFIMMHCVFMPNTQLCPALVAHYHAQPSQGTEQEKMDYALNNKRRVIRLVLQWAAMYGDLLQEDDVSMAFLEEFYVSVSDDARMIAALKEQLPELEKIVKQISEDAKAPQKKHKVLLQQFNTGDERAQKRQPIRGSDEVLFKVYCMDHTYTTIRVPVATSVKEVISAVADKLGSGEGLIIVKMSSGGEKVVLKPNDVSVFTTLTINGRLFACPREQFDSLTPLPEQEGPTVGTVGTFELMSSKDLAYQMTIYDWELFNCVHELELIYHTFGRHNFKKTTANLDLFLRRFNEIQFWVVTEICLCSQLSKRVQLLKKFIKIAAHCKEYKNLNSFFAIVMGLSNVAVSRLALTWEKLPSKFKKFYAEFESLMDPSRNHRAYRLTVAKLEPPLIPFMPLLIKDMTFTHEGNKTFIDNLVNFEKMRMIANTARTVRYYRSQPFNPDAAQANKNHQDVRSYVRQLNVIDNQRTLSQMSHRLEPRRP
Assay: Validation qHTS for agonist of cAMP-regulated guanine nucleotide exchange factor 4 (EPAC2);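 note: exchange makes BODIPY-GDP fluorescence drop when released from Rap1B; series mostly up to about 150 µM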
Settings: EPAC2 Rap1B BODIPY-GDP exchange, fluorescence; activation: active compounds read high
In short: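 Fluorescent exchange assay: 100 nM EPAC2 with 250 nM RAP1B-BODIPY-GDP and 50 uM GDP; compound added, 5 min at room temperature, then read (ex 480/em 540 nm) every 5 min for 30 min. Normalized to 6.5 mM cAMP agonist control.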
% is set by controls: 0 for no effect and ±100 for the full control effect.

activation, inactive:
CN(C)c1ccc(/C=C/c2cc3ccccc3cn2)cc1 -23.7%
CN(C)CCCn1cc(C2=C(c3c[nH]c4ccccc34)C(=O)NC2=O)c2ccccc21 -11.3%
COc1ccc(S[C@@H]2C[C@@H](C(=O)Nc3ccc4nccnc4c3)N(C3Cc4ccccc4C3)C2)cc1 -15.7%
COc1ccccc1C(=O)N[C@@H]1c2ccccc2C2(CCN(Cc3ccc(C)o3)CC2)[C@H]1O -0.971%
CC(=O)N1CCC2(CCCN(c3cccc(-c4ccccc4)c3)C2)CC1 -24.9%
COc1nc(N)nc2c1ncn2[C@@H]1O[C@H](CO)[C@@H](O)[C@@H]1O 16.1%
COC(=O)N1CCC2(CC1)CCN(c1ncccn1)CC2 -4.41%
CN(C)c1ccc(-c2cncnc2-n2ccnc2)cc1 -17.4%
CC(C)(C)CC(C)(C)c1ccc(O)c(-n2nc3ccccc3n2)c1 2.69%
Nc1nc2c(ncn2C2CC(O)C(CO)O2)c(=O)[nH]1 (configuration not stated) -3.58%
CN1C(=O)CN2CCc3ccccc3C2c2cc(Cl)ccc21 (configuration not stated) 12%
COc1cc(=O)n2c(c1C(=O)NCc1ccco1)CCN(C(=O)c1ccccc1-c1ncc[nH]1)CC2 -9.86%
COc1cc(-c2noc(C)c2C(=O)NCCO)cc(OC)c1OC -10.5%
O=C1NCCN1CCN1CCC(c2cn(-c3ccc(F)cc3)c3ccc(Cl)cc23)CC1 14.6% and 3.88%
O=C1CCC(N2C(=O)c3ccccc3C2=O)C(=O)N1 (configuration not stated) 2.83% [middle of 4 runs]
CCCCC[C@H]1CN(C2CCCCC2)C(=O)[C@@H]1CC(=O)NCc1ccccc1 -37%
NCCCC[C@@H](N)C(=O)O 2.13%
C[C@H](N)C(=O)N[C@@H](C)P(=O)(O)O 8.51%
CC(=O)Nc1ccc(SC[C@H](C)CN2CC[C@H](C(C)(C)C)CCC2=O)cc1 -35.4%
COc1cc2c(cc1OC)C(=O)Cc1ccc3c(c1CN(C)CC2)OCO3 -4.62% and -1.37%
COc1cccc(-c2ccc(O)c(CNCc3cccc(OC)c3OC)c2)n1 -6.91%
CC(=O)OC1CC(OC(C)=O)[C@]2(C)C(CC(OC(C)=O)[C@@]3(C)C4=CC(=O)OC(c5ccoc5)[C@]4(C)CCC32)C1(C)C (some centres not stated) -12.7%
CN(C)c1ccc(-c2ccc3ncnc(N4CCNCC4)c3c2)cc1 -9.63%
N[C@@H](Cn1cc(I)c(=O)n(Cc2ccc(C(=O)O)cc2)c1=O)C(=O)O 2.18%
O=C1CC(C(=O)N2CCCC(c3nc(-c4ccncc4)ncc3-c3ccccc3)C2)C2(CCCCC2)O1 (configuration not stated) 0.995%
CN(C)c1ncc2nc(-c3cc(F)cc(F)c3)c(=O)n(-c3ccccc3)c2n1 6.71%
O=C1[C@@H]2[C@H]3CC[C@H](C3)[C@@H]2C(=O)N1CCCCN1CCN(c2ncccn2)CC1 2.5%
CC(C)(COP(=O)(O)OP(=O)(O)OC[C@H]1O[C@@H](n2cnc3c(N)ncnc32)[C@H](O)[C@@H]1OP(=O)(O)O)C(O)C(=O)NCCC(=O)NCCS (some centres not stated) -28.5%
CC(=O)OCC1=C(C(=O)O)N2C(=O)[C@@H](NC(=O)Cc3cccs3)[C@H]2SC1 8.96% and -9.97%
CCn1nc(C)cc1C(=O)NCC1Cc2cc(C)cc(-c3ccccc3C(=O)OC)c2O1 (configuration not stated) -13.8%
CCOc1ccc(NC(=O)CC(C)O)cc1 (configuration not stated) -0.749%
COc1ccc2[nH]cc(CCNc3ccnc(-c4ccccc4C)n3)c2c1 4.73%
CNC(C)C#Cc1c(-c2cc(OC)c(OC)c(OC)c2)noc1C (configuration not stated) -19.2%
CCN(CC)CCNC(=O)COc1ccc(OC)cc1 -3.45%
Cc1nc2n(c(=O)c1CCN1CCC(c3noc4cc(F)ccc34)CC1)CCCC2O (configuration not stated) 1.22%
Cc1cccc(CNc2ncnc3ccc(-c4cccc(NS(C)(=O)=O)c4)cc23)c1 1.39%
COCCNc1ccnc(-c2cccc(NS(C)(=O)=O)c2)n1 -7.27%
OC[C@@H]1O[C@@H](n2cnc3c(N[C@H]4CCC[C@@H]4O)ncnc32)[C@H](O)[C@H]1O -11.6%
COc1ccc(-c2nc3ccc(C4=NNC(=O)CC4C)cc3[nH]2)cc1 (configuration not stated) 9.07%
C=CCCCCCCCCC(=O)O -12.7%
CCCN(CCC)C(=O)C(CCC(=O)OCCCN1CCN(CCOC(=O)Cc2c(C)n(C(=O)c3ccc(Cl)cc3)c3ccc(OC)cc23)CC1)NC(=O)c1ccccc1 (configuration not stated) -25.7%
CC1(C)S[C@@H]2[C@H](NC(=O)Cc3ccccc3)C(=O)N2[C@H]1C(=O)O 3.56%
COc1ccc2c(c1)CCC1[C@@H]2CCC2(C)[C@@H](NCCCCCCN3C(=O)C=CC3=O)CC[C@@H]12 (some centres not stated) -18.3%
C[C@]12C[C@H](O)CC(CO)(CO)C1[C@H](O)C[C@@]13CC4[C@@H](CC12)[C@@]4(C)C3 (some centres not stated) -23%
c1ccc2occc2c1 -16.4%
COc1cc(=O)n2c(c1C(=O)N(C)Cc1nonc1C)CCN(Cc1ccsc1)CC2 -5.57%
CCOC(=O)C1(O)Oc2cc(OC)cc(OC)c2C(=O)C1c1ccccc1 (configuration not stated) -1.3%
COc1c(O)cc2oc3cc(O)c(CC=C(C)C)c(O)c3c(=O)c2c1CC=C(C)C 2.42% and 12.1% and 2.9%
CC(=O)C[C@H]1c2cc(F)cc(F)c2S(=O)(=O)N1C1CCN(Cc2ccccc2)CC1 -11.4%
Cc1cnc(CNc2ncncc2-c2cccc(C#N)c2)cn1 -8.88%
COc1ccccc1CNc1ccnc(-c2cccc(C#N)c2)n1 -4.49%
CC[C@H](C)[C@H](NC(=O)[C@H](C)NC(=O)[C@H](CC(N)=O)NC(=O)[C@H](CCCCN)NC(=O)[C@H](Cc1ccccc1)NC(=O)[C@H](CC(C)C)NC(=O)[C@@H](NC(=O)[C@@H](NC(=O)[C@H](CC(C)C)NC(=O)[C@@H]1CCCN1C(=O)[C@@H](NC(=O)[C@H](CCC(N)=O)NC(=O)[C@H](CO)NC(=O)[C@H](CCCCN)NC(=O)[C@H](CCC(=O)O)NC(=O)[C@H](CO)NC(=O)[C@@H](NC(=O)[C@H](CCSC)NC(=O)[C@H](Cc1ccccc1)NC(=O)CNC(=O)CNC(=O)[C@@H](N)Cc1ccc(O)cc1)[C@@H](C)O)[C@@H](C)O)C(C)C)[C@@H](C)O)C(=O)N[C@H](C(=O)N[C@@H](CCCCN)C(=O)N[C@@H](CC(N)=O)C(=O)N[C@@H](C)C(=O)N[C@@H](Cc1ccc(O)cc1)C(=O)N[C@@H](CCCCN)C(=O)N[C@@H](CCCCN)C(=O)NCC(=O)N[C@@H](CCC(=O)O)C(=O)O)[C@@H](C)CC 6.35%
CCNc1ncc2nc(-c3cc(F)cc(F)c3)c(=O)n(-c3ccc(OC)cc3)c2n1 -4.69%
C[n+]1ccccc1/C=N/O 9.01% and -5.02%
N#Cc1cccc(NC(=O)N2CC3(CCN(C(=O)c4ccco4)CC3)C2)c1 -20.1%
CC[C@@H](C)[C@H]1O[C@]2(CC[C@@H]1C)C[C@@H]1C[C@H](C/C=C(/C)[C@H](O[C@@H]3C[C@H](OC)[C@H](O[C@@H]4C[C@H](OC)[C@@H](O)[C@H](C)O4)[C@H](C)O3)[C@@H](C)/C=C\C=C3CO[C@@H]4[C@H](O)C(C)=C[C@@H](C(=O)O1)[C@]34O)O2 (tested in a mixture with another compound) -14.6%
Clc1ccccc1-c1ccc2ncnc(NCCN3CCOCC3)c2c1 1.1%
COc1ccc(C(=O)OC2CC3CC[C@H](C2)N3C(C)=O)cc1OC (some centres not stated) -11.5%
CCOc1cc(N)c(Cl)cc1C(=O)NCC1CN(Cc2ccc(F)cc2)CCO1 (configuration not stated) 8.42%
COc1ccc(-c2cc(C)cc3c2OC(CNC(=O)c2cc(C(C)C)on2)C3)nn1 (configuration not stated) -11%
Cc1cccc(Nc2ccccc2C(=O)O)c1C -8.02% and 7.21%
Nc1ccc(/C=C/c2ccc(N)cc2S(=O)(=O)O)c(S(=O)(=O)O)c1 1.01%
COc1ccc(/C=C/C(=O)c2cc(O)ccc2O)cc1 -8.32%
Cc1sc2ccccc2[n+]1CCc1ccccc1 -16.1%
C=C1C(=O)O[C@@H]2[C@H]3O[C@]3(C)CCC=C(C)CC[C@@H]12 -14.3% and -29%
O=C(c1cnccn1)N1CCC[C@@]2(CCN(Cc3ccccc3)C2)C1 -6.97%
O=C(Nc1ccccc1)N1CCC2(CC1)CCN(C(=O)c1ccco1)CC2 -14%
Cc1nc2cnc(Oc3cccc(Cl)c3)nc2n(CCc2ccccc2)c1=O -11.6%
CN(CCOc1ccc(C[C@H](Nc2ccccc2C(=O)c2ccccc2)C(=O)O)cc1)c1ccccn1 -17.1%
O=C(CN1Cc2ccccc2OC(c2ccccc2)C1)NCc1cccnc1 (configuration not stated) -4.28%
CC(C)C[C@@H](NC(=O)[C@@H](O)[C@H](N)Cc1ccccc1)C(=O)O -4.49%
COc1cc(=O)n2c(c1C(=O)NC(C)c1ccco1)CCN(C(=O)c1ccc3c(c1)OCCO3)CC2 (configuration not stated) -2.33%
